Measured values as given in paper PMC4336329 (PLoS ONE, 2015).
In all, about 310,000 compounds went through this assay and about 14,000 (4.5%) showed an effect of 50% or more. Effects have a minus sign here. The list shows a part of the results. Where a SMILES comes first, the peptide text is derived from it. The star is where a group is joined. OPac = O=C(CO*)c1ccccc1; Bz = O=C(c1ccccc1)*

target: human ether-à-go-go-related gene (hERG) potassium channel (human, UniProt Q12809); experiment: primary screen, population patch clamp on CHO cells stably expressing hERG
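Further: peak tail current of the secondary pulse compared with the same well before compound.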

human ether-à-go-go-related gene (hERG) potassium channel, sequence (Q12809 whole entry, looked up): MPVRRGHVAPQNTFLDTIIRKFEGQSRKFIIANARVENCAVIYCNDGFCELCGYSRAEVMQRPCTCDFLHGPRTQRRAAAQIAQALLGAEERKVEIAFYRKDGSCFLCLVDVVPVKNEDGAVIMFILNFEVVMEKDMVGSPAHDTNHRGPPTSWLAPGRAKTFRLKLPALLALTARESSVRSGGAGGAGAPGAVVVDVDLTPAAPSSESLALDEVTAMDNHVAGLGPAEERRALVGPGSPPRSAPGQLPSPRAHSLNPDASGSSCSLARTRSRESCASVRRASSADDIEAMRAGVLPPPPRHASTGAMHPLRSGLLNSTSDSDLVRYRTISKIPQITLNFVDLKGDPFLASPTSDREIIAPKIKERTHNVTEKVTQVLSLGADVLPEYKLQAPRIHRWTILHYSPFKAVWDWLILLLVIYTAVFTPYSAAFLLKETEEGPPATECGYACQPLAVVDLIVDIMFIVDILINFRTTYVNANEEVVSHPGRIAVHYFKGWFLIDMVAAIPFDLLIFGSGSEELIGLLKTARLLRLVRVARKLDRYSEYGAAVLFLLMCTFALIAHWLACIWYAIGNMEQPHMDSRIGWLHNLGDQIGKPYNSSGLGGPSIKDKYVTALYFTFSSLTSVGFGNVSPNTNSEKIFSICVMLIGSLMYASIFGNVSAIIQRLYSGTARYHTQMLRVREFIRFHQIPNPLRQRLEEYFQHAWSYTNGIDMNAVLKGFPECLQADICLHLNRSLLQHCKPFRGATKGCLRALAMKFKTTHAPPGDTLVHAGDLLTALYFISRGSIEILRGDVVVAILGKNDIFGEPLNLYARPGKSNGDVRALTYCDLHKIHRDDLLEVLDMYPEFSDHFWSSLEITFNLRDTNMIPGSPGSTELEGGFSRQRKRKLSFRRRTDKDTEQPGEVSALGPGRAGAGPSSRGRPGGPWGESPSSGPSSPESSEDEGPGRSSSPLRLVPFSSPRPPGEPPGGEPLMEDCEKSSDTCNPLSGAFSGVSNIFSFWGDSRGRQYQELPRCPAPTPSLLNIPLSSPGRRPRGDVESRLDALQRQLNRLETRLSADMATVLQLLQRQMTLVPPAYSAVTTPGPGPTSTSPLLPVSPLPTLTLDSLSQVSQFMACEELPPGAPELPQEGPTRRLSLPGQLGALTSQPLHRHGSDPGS

Row | SMILES | hERG current change (%, negative = inhibition) at 10uM
1 | CCO[C@H]1OC(C(=O)N2CCN(Cc3ccccc3)CC2)=C[C@@H](c2ccc(C(F)(F)F)cc2)[C@@H]1CCCO | -11%
2 | O=C(CNC(=O)c1ccc(Cl)cc1)OC1CCOC1=O (stereo not shown) | 2.78%
3 | COc1ccc2[nH]c(=O)c(CNc3cccc(C)c3)cc2c1 | -11.9%
4 | COc1ccc(-n2cnc(N)c2C(=O)c2cccc([N+](=O)[O-])c2)cc1 | -25.4%
5 | COc1cc2c(cc1NC(=O)CSc1nnc(Cc3cccs3)n1C)oc1ccccc12 | 11.5%
6 | Cc1ccc(C(=O)C2OC(=O)C(C)(C)C(=O)C2(C)C)cc1 (stereo not shown) | -9.46%
7 | Cc1ccc(S(=O)(=O)CC(C)N2CCN(C3CCCCC3)CC2)cc1 (stereo not shown) | -40.1%
8 | O=C(CN1CCCCCC1)NCCc1ccc(F)cc1.O=C(O)C(=O)O | -19.7%
9 | O=C1NC(c2ccccc2)Oc2ccccc21 (stereo not shown) | 13.9%
10 | C/C(=N\Nc1nc(-c2ccc(C)cc2C)cs1)c1cc2ccccc2oc1=O | 7.78%
11 | O=C(O)c1cccc(NC(=O)c2ccccc2NC(=O)c2ccccc2F)c1 | 13.6%
12 | CC1=CC(c2ccc(Cl)cc2)n2nc(NS(=O)(=O)c3ccc(C)cc3)nc2N1 (stereo not shown) | -19.7%
13 | O=C(CNC(=O)c1ccccc1)NCC(=O)OCC(=O)c1ccccc1 (Bz-Gly-Gly-OPac) | 14.7%
14 | CSCCC(Nc1ccc(S(=O)(=O)N2CCOCC2)cc1[N+](=O)[O-])C(=O)OCC(=O)NCC(C)C (stereo not shown) | -9.7%
15 | CC(=O)c1c(C)[nH]c(C(=O)Nc2c(C)n(C)n(-c3ccccc3)c2=O)c1C | 14.7%
16 | CC1=CC2=NC(=O)CC(C)(C(=O)N(CC(=O)NC3CCCC3)Cc3ccc(Cl)cc3)N2C=C1 (stereo not shown) | 13.1%
17 | CC(C)(C)S(=O)(=O)c1cnc(-c2ccc(Cl)cc2)nc1N | 16.1%
18 | CCC(C)(C)N1CC(=O)N(Cc2ccccc2)C(c2ccc(OC)cc2)C1=O (stereo not shown) | -26.4%
19 | CN1CC(=O)Nc2ccc([N+](=O)[O-])cc2C1=O | 24.7%
20 | CCOc1ccccc1N(CC(=O)NC1CCCCC1)S(=O)(=O)c1ccccc1 | -27%
21 | CN(Cc1ccc(C(C)(C)C)cc1)C(=O)Cc1ccc(S(=O)(=O)N2CCOCC2)s1 | -13.8%
22 | Cc1cc(C(=O)OCC(=O)N2CCc3ccccc32)ccc1[N+](=O)[O-] | 2.88%

Row | SMILES | hERG current change (%, negative = inhibition) at 10uM
23 | COc1ccc(-n2ccnc2SCC(=O)NC2CCCC2)cc1 | -6.12%
24 | Cc1cc2cc(CN(Cc3ccco3)C(=S)NCC3CCCO3)c(=O)[nH]c2cc1C (stereo not shown) | -3.49%
25 | Cc1ncc(S(=O)(=O)c2ccccc2)c(-c2ccc(Cl)cc2Cl)n1 | -4.95%
26 | COc1cc([N+](=O)[O-])cc2cc(C(=O)N3CCCC3)c(=O)oc12 | 9.56%
27 | OCC1(CCOc2ccccc2)CCN(C2Cc3ccccc3C2)CC1 | -72.8%
28 | CCCCCn1c(=N)n(CC(O)COc2ccccc2OC)c2ccccc21 (stereo not shown) | -75.9%
29 | COc1ccccc1C(=O)NCC(=O)N1CCN(S(=O)(=O)c2ccc3c(c2)OCCO3)CC1 | 11.7%
30 | CS(=O)(=O)N(CC(=O)N1CCN(c2ccccc2)CC1)Cc1ccc(Cl)cc1 | -28.6%
31 | O=C(CSc1nnc(-c2ccccc2Cl)o1)N1CCCCC1 | -8.83%
32 | O=C(O)C1=CC[C@@H](c2ccc(Cl)cc2)N(S(=O)(=O)c2ccc(Cl)cc2)[C@H]1c1cccc(Cl)c1 | 25.9%
33 | Cl.c1ccc(SCCN2CCN(c3ccccc3)CC2)cc1 | -10.9%
34 | COc1cccc(C(Nc2ccccn2)c2c(NC(=O)c3ccco3)sc(C)c2C)c1 (stereo not shown) | 10.8%
35 | Cc1ccc(S(=O)(=O)N2CCN(C(=O)C3CCCC3)CC2)cc1C | 13.6%
36 | CC(C)(C)c1ccc(N2C(=O)Cc3c2nc(N)c(C#N)c3N)cc1 | -8.89%
37 | COc1ccc(S(=O)(=O)N(CCc2ccccc2)CC(=O)O)cc1Cl | -8.05%
38 | COCCn1c(C)cc(/C=C(\C#N)C(=O)OC(C)C(=O)Nc2ccc(NC(C)=O)cc2)c1C (stereo not shown) | 12.1%
39 | O=C(c1cc2ccccc2o1)N1CCN(C/C=C/c2ccccc2)CC1 | -62.2%
40 | C=CCn1c(SCc2nc3ccccc3nc2C)nnc1-c1ccoc1C | -13.3%
41 | CCc1ccccc1NC(=O)CCc1c(C)nn(-c2ccc(N3CCOCC3)nn2)c1C | -1.33%
42 | Cc1cnc(NC(=O)Cn2cnc3c2c(=O)n(C)c(=O)n3C)s1 | 0.958%
43 | COCCNC(=O)C(=O)NCCN1CCNCC1.O | 22.8%
